This note sets out measurements from PubChem BioAssay (NCATS).

Structures are written as SMILES. “And” between values parts separate entries of the source, which are not always exact repeats. Equal entries are not always repeated. The list shows a part of the results. The main result of the screen is listed elsewhere. These columns were measured beside it and carry no call. Compounds called inactive in the main read-out are mostly missing here.

A short description of this assay: qHTS Assay for Lipid Storage Modulators (AID 1519). To be noted: Drosophila S3 cells, BODIPY lipid droplet/cell ratio, laser cytometry; measured here: cell count channel max response; cells loaded with oleic acid. The gist of the method:
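Cells seeded at 5,000 per well were treated with compounds over a concentration series and loaded with oleic acid (400 uM, as added). Lipid droplet fluorescence (488 nm excitation, 500-530 nm channel) was read by laser-scanning cytometry and normalized to 20 uM Triacsin C.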
(In general: qHTS replaces the single test concentration by a dilution series.)
With `COc1cccc(-c2nc(NCc3cccs3)c3ccccc3n2)c1`, the max response was found to be 29.3%.

Consider `COc1ccc(CNc2cc(-c3cccnc3)ncn2)c(OC)c1`, for which the max response amounted to 20.7%.

In the case of `CN(C)c1ccc(-c2cncnc2NCCc2cnc[nH]2)cc1`, the max response amounted to 35.6%.

In the case of `NC[C@@H]1O[C@H](c2ccccc2)Cc2c1ccc(O)c2O`, the max response turned out to be 60.7%.

On to `O=c1c(O)c(-c2cccc(O)c2)oc2ccccc12`, for which the max response stood at 15.6%.

In the case of `CCNc1ncc2nc(C)c(=O)n(Cc3cccc(OC)c3)c2n1`, the max response stood at 28%.

As for `COc1ccc(-n2c(=O)c(-c3ccc(F)cc3)nc3cncnc32)cc1`, the max response worked out at 42.8%.

`CN(C)c1ccc(-c2cncnc2Nc2ccccc2)cc1`: the max response was determined as 24.1%.

Consider `COc1ncc2nc(CCc3ccccc3)c(=O)n(-c3ccccc3)c2n1`, for which the max response stood at 34.2%.

In the case of `Cc1ccccc1-c1nccc(NCc2cccnc2)n1`, the max response stood at 21.1%.

For the molecule `N#CCCn1c(=O)c(CCc2ccccc2)nc2cnc(OCc3ccccc3)nc21`, the max response is 19.5%.

In the case of `CNc1ncncc1-c1ccccc1C(F)(F)F`, the max response came to 38%.

Turning to `O=c1c(-c2cccs2)nc2cncnc2n1-c1ccccc1`, the max response was found to be 32.8%.

`COC(=O)C1=C(C)NC(C)=C(C(=O)OCCSc2ccccc2)[C@@H]1C`: the max response is 8.34%.

Consider `COCCn1c(=O)c(-c2ccc(F)cc2)nc2cnc(N(C)C)nc21`, for which the max response came to 28.3%.

With `COc1cc2c(cc1OC)C(=O)Cc1ccc3c(c1CN(C)CC2)OCO3`, the max response was determined as 78.6%.

Regarding `c1cncc(-c2nc(-n3ccnc3)c3ccccc3n2)c1`, the max response stood at 27.6%.

On to `Oc1ccc(/C=C\c2cc(O)cc(O)c2)cc1`, for which the max response turned out to be 61.9%.

Turning to `COc1cccc(-c2ccc3ncnc(N(C)C)c3c2)c1`, the max response stood at 4.11%.

In the case of `COc1cc2ccc(=O)oc2c(O)c1OCC=C(C)C`, the max response is 71.5%.

Take `O=c1c(-c2cc(F)cc(F)c2)nc2cncnc2n1Cc1ccccc1Cl`: the max response was determined as 31.6%.

Take `Cc1ccccc1-c1nccc(Nc2ccc(F)cc2)n1`: the max response was found to be 8.25%.

With `CC#CCOC(=O)C1=CCCN(C)C1`, the max response worked out at 5.44%.

For the molecule `COc1ccc(-c2cc(=O)c3cc(OC)ccc3o2)cc1`, the max response came out at 39.8%.

In the case of `C=C(CO)C1Cc2c(ccc3c2OC2COc4cc(OC)c(OC)cc4C2C3=O)O1` (stereo not given), the max response is 54.3%.

As for `Clc1ccccc1-c1nc(NCCN2CCOCC2)c2ccccc2n1`, the max response worked out at 44.5%.

As for `c1ccc(-c2csc(-c3nc4ccccc4[nH]3)n2)cc1`, the max response is 15.4%.

Turning to `CCc1ccc2c(-c3cccc(Cl)c3)nc(=O)n(CC)c2n1`, the max response was found to be 118%.

As to `O=C(O)c1cccnc1C(=O)O`, the max response was 23.1% and 21.8%.

For the molecule `CN(C)C(=O)c1ccc(-c2cncnc2-n2ccnc2)cc1`, the max response was determined as 30.3%.

With `O=c1c(-c2ccc(Cl)cc2)nc2cnc(Nc3ccccc3)nc2n1C[C@H]1CCCO1`, the max response was -25.5%.

Regarding `COc1ccccc1N1CCN(CCN2C(=O)CC3(CCCC3)CC2=O)CC1`, the max response is 64.3% and 71%.

On to `Fc1ccc(Nc2nc(-c3ccoc3)nc3ccccc23)cc1`, for which the max response was -8.29%.

Consider `COc1ccccc1-c1nc(N2CCOCC2)c2ccccc2n1`, for which the max response was 36.5%.

On to `CC[N+](CC)(CC)CC(=O)Nc1c(C)cccc1C`, for which the max response is 55%.

As to `c1ccc(Nc2nc(-c3ccoc3)nc3ccccc23)cc1`, the max response was found to be 25.2%.

In the case of `CC(C(=O)O)c1ccc2c(c1)[nH]c1ccc(Cl)cc12` (stereo not given), the max response came out at 33.4%.

As to `CN(C)C/C=C(\c1ccc(Br)cc1)c1cccnc1`, the max response amounted to 66.3%.

Take `N#CCCn1c(=O)c(CCc2ccccc2)nc2cnc(Oc3ccccc3)nc21`: the max response turned out to be 27.4%.

Turning to `CN(C)c1ccc(-c2nccc(NCc3cccs3)n2)cc1`, the max response was -32.4%.
